Laboratory results published in PubChem BioAssay AID504832 (National Center for Advancing Translational Sciences (NCATS), 2011).
Several values for one entry are separate records, joined by “and”; a condition that tells them apart may be missing. Equal entries are not always repeated. The campaign covered roughly 310,000 compounds. About 18,000 (5.8%) were called active. The shares of active, inactive and inconclusive entries below differ from those in the screen. Calls come from the whole dose curve; as a rule, active = well fitted inhibition curve with a large enough effect; inconclusive = small, poorly fitted or top-dose-only effect, or another doubt; inactive = no such curve, though single readings can be large or run the other way. Potencies of inconclusive entries are left out as doubtful fits.

Assay: Primary qHTS for delayed death inhibitors of the malarial parasite plastid, 48 hour incubation
Conditions: P. falciparum luciferase growth in erythrocytes; series mostly up to 28.7 µM
How it was run: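 Luminescence readout; reporter = integrated firefly luciferase in P. falciparum. RBC culture at 2% hematocrit, 0.1% parasitemia final, 37 C/5% CO2; decreased signal taken as growth inhibition.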
% is set by controls: 0 for no effect and ±100 for the full control effect; potency is the fitted concentration of half-maximal effect; tags give direction and shape of the fitted curve.

SMILES | Potency | activity change, negative = inhibition
O=C(Nc1ccn(Cc2ccccc2)n1)c1ccc2c(c1)OCO2 | inactive | 
Cc1csc2ncc(C(=O)Nc3ccc(C(F)(F)F)cc3)c(=O)n12 | inactive | 
Nc1ccccc1Nc1cc(-c2ccccc2)nn1-c1ccccc1 | inactive | 
Cc1ccc2cc3cc(C(=O)NCCCN4CCCCCC4)oc3nc2c1 | inconclusive [inhibitor, partial curve] | 
Cn1cc(CNC(=O)c2ccc3nc(Cc4ccccc4F)oc3c2)cn1 | inactive | 
CC1CCN(C(=O)CNC(=O)Cc2ccccc2)CC1 | inactive | 
CC(C)N(C(=NCc1ccccc1)NC(=O)c1ccccc1)C(C)C | inconclusive [inhibitor, single point] | 
CCN=C1S/C(=C\c2cn(CC)c3ccccc23)C(=O)N1CC | inconclusive [inhibitor, single point] | 
Cc1ccc(NC(=O)CSc2ccc(-c3cccnc3)nn2)c(C)c1 | inconclusive [inhibitor, partial curve] | 
CC(C)N1CCN(Cc2cccn2-c2nccs2)CC1CCO (stereo unspecified) | inconclusive [inhibitor, partial curve, poor fit] | 
CC(C(=O)Nc1ccc(S(=O)(=O)Nc2ncccn2)cc1)N1C(=O)c2ccccc2S1(=O)=O (stereo unspecified) | inconclusive [inhibitor, partial curve, poor fit] | 
O=C(Nc1ccncc1)c1ccc(Cl)c(S(=O)(=O)N2CCCCC2)c1 | inconclusive [inhibitor, partial curve, poor fit] | 
CCOC1(C(F)(F)F)NC(=O)N(Cc2ccc(OC)cc2)C1=O (stereo unspecified) | inconclusive [inhibitor, partial curve] | 
CN=C1SC(CC(=O)Nc2sc3c(c2C#N)CCCC3)C(=O)N1C (stereo unspecified) | inconclusive [inhibitor, single point] | 
CCOC(=O)CSc1nc(-c2ccncc2)ccc1C#N | inactive | 
CC(C)(C)c1ccc(/C=N/NC(=O)c2ccccn2)cc1 | inactive | 
CC(C)Oc1cccc(C(=O)C2CCCN(Cc3cccn3-c3cccnc3)C2)c1 (stereo unspecified) | inconclusive [inhibitor, partial curve, poor fit] | 
COc1cccc(-c2cc(C(F)(F)F)nc(N3CCN(c4ccccc4)CC3)n2)c1 | inconclusive [inhibitor, single point] | 
Cc1cc(/C=N/NC(=O)c2ccncc2)c(C)n1-c1cccc(C(F)(F)F)c1 | inconclusive [inhibitor, partial curve, poor fit] | 
O=C(CSc1nnc(NC(=O)c2ccccc2F)s1)NC1CCCC1 | inconclusive [inhibitor, full curve, poor fit] | 
CCOCCCNc1nc2c(C)cccn2c(=O)c1/C=C1\SC(=S)N(CC(C)C)C1=O | inconclusive [inhibitor, partial curve] | 
COc1ccc(C(=O)NCCCNC(=O)c2cnccn2)cc1Br | inconclusive [inhibitor, partial curve] | 
CC(C)CCC(CCNCc1ccccn1)c1ccc(Cl)cc1 (stereo unspecified) | active: 3.29 µM | 
Cc1cc(C)c(S(=O)(=O)c2ccc(Cl)cc2)c(Cl)n1 | inconclusive [inhibitor, single point] | 
Cn1c(NC(=O)CC(C)(C)C)cc(=O)n(C)c1=O | inactive | 
CCC(C)(C(=O)NC1CCCCC1)N(C(=O)Cc1cccs1)c1ccccc1 (stereo unspecified) | inactive | 

SMILES | Potency | activity change, negative = inhibition
COc1cc2c(cc1OC)CN(Cc1cc(=O)oc3cc(C)c(C)cc13)CC2 | inconclusive [inhibitor, single point] | 
CC(C)(C)c1ccc(C(=O)c2c[nH]c(C(=O)NCc3cccnc3)c2)cc1 | active: 8.28 µM | 
O=C(CSc1ccc(Br)cc1)N1CCN(S(=O)(=O)c2ccccc2)CC1 | inconclusive [inhibitor, single point] | 
C=CCSc1nnc(-c2cc3c(s2)-c2ccccc2CC3)o1 | inconclusive [inhibitor, single point] | 
CCOC(=O)C1=C(CS(=O)(=O)c2ccc(F)cc2)NC(=O)NC1c1ccc(O)c(O)c1 (stereo unspecified) | inactive | 
CCOC(=O)N1CCC2(CC1)NCCc1c2[nH]c2ccccc12 | inconclusive [inhibitor, single point] | 
CCC(=O)N(Cc1cc2cccc(C)c2[nH]c1=O)c1ccccc1OC | inconclusive [inhibitor, single point] | 
Cc1ccc(-n2c(C)cc(/C=N/NC(N)=S)c2C)cc1 | inconclusive [inhibitor, single point] | 
C#CCCc1ccccc1/C=[N+](/C)[O-] | inconclusive [inhibitor, single point] | 
C[C@@H]1CC=C[C@H]2[C@H]1C(=O)N(Cc1ccccc1)[C@H]2c1ccc(Br)cc1F | inconclusive [inhibitor, single point] | 
O=C(Nc1cc(=O)c2ccccc2o1)N1CCOCC1 | inconclusive [inhibitor, single point] | 
CC1CN(C(=O)CCC(=O)NCCCc2ccccc2)c2ccccc2O1 (stereo unspecified) | inactive | 
Cc1ccc(S(=O)(=O)Nc2ccccc2C(=O)N2CCCCC2)cc1 | inactive | 
CCOC(=O)N1CCc2c(sc(NC(=O)CN3CCOCC3)c2C#N)C1 | inconclusive [inhibitor, partial curve, poor fit] | 
N/C(=N\OC(=O)CC1CCCCC1)c1ccc([N+](=O)[O-])cc1 | inactive | 
CCc1cccc(CC)c1NC(=S)N1CCn2cccc2C1c1cccnc1 (stereo unspecified) | inconclusive [inhibitor, single point] | 
CCOc1ccc(CCNC(=O)c2ccc3c(=O)n4c(nc3c2)CCCCC4)cc1 | inconclusive [inhibitor, single point] | 
Cc1ccc(-n2c(N)c(C(=O)Nc3c(C)n(C)n(-c4ccccc4)c3=O)c3nc4ccccc4nc32)cc1 | active: 9.28 µM | 
COc1cccc(N2CC(C(=O)Nc3nnc(SCC(=O)N4CCCC4)s3)CC2=O)c1 (stereo unspecified) | inconclusive [inhibitor, partial curve, poor fit] | 
Cn1c(-c2ccc(Cl)cc2)cnc1N | inconclusive [inhibitor, single point] | 
C=CCSc1nc2c(c(-c3ccsc3)c1C#N)CN(C)CC2 | inconclusive [inhibitor, partial curve] | 
CCC(=O)Nc1ccc(S(=O)(=O)Nc2c(C)nc3nc[nH]n3c2=O)cc1 | inactive | 
N#C/C(=C\c1ccc[nH]1)Sc1nc2ccccc2s1 | inactive | 
N#Cc1ccc(-c2csc(N3CCC(C(N)=O)CC3)n2)cc1 | inactive | 
COc1cc(/C=C/c2nc3ccccc3c(=O)n2-c2ccc(O)cc2)ccc1O |  | inactive: -9.96% [at 0.00184 µM]
COc1cc(N)c(Cl)cc1C(=O)N[C@H]1CCN(CCCOc2ccc(F)cc2)C[C@H]1OC | active: 5.73 µM and active: 2.62 µM | 

SMILES | Potency | activity change, negative = inhibition
COc1ccc2[nH]c(=O)c(CN(CCc3ccccc3)Cc3nnnn3CC3CCCO3)cc2c1 (stereo unspecified) | inactive | 
CCNc1nnc(SCC(=O)N2c3ccccc3NC(=O)CC2C)s1 (stereo unspecified) | inactive | 
CCn1c(O)c(/C=N/NC(=O)c2ccccc2)c(=O)[nH]c1=S | inconclusive [inhibitor, single point] | 
CC(C)(C)c1csc(NC(=O)c2ccncc2)n1 | inactive | 
NNC(=O)c1cc2cc(OC(F)(F)F)ccc2[nH]1 | inconclusive [inhibitor, single point] | 
CC(C)(C)c1ccccc1NC(=S)NC1CCCC1 | inactive | 
CC(C)N1C(=S)N(Cc2ccco2)C(=O)C1CC(=O)Nc1ccccc1 (stereo unspecified) | active: 1.04 µM | 
Cc1ccc(NC(=O)COc2ccc(-n3ccnc3)cc2)cc1Cl | active: 9.28 µM | 
COC(=O)c1nn(-c2ccccc2)c(Sc2ccc(C)cc2)c1/C=N/O | inconclusive [inhibitor, partial curve, poor fit] | 
CCOC(=O)C/C(N)=N/NC(=O)c1ccc(Cl)cc1Cl | inactive | 
O=C(Cc1nnc(NC(=O)Nc2ccc(F)cc2)s1)Nc1ccccc1 | inactive | 
O=C(COC(=O)c1ccccn1)Nc1nc(-c2cccc([N+](=O)[O-])c2)cs1 | inactive | 
CC1(C)CC(NC(=O)c2cc(Cl)ccc2Cl)CC(C)(C)N1 | inactive | 
CCN1CCN(C(=O)NC2CC(=O)N(c3ccc(OC)cc3)C2)CC1 (stereo unspecified) | inactive | 
O=C(Nc1ccc(S(=O)(=O)Nc2ncccn2)cc1)c1ccc(Cl)c([N+](=O)[O-])c1 | inactive | 
CCSC1=N/C(=C/c2ccsc2)C(=O)N1c1ccccc1 | inactive | 
COc1ccnc2c1c(=O)n(Cc1ccc(Cl)cc1)c(=O)n2C | inactive | 
C=C(C)C(=O)OCC(C)C | inactive | 
CCC(Sc1nc2n[nH]c(C)c2c(=N)n1-c1cccc(Cl)c1C)C(=O)N(CC)CC (stereo unspecified) | inconclusive [inhibitor, partial curve] | 
O=C(NC1CCCCC1)c1cccnc1Sc1ccccc1Cl | inactive | 
Cn1c(=O)c2c(nc(CN3CCN(Cc4ccccc4)CC3)n2Cc2ccccc2)n(C)c1=O | inconclusive [inhibitor, partial curve] | 
CC(=O)Nc1ccc(NC(=O)Cn2nc(C(=O)Nc3ccc(C)cc3)ccc2=O)cc1 | inactive | 
CCN(CC)S(=O)(=O)c1ccc2oc(SCc3ccc(F)cc3)nc2c1 | inconclusive [inhibitor, single point] | 
Cc1ccc(S(=O)(=O)Cc2ccc(C(=O)N3CCC(C(N)=O)CC3)o2)cc1 | inactive | 
